From PMC4935880, “COG lobe B sub-complex engages v-SNARE GS15 and functions via regulated interaction with lobe A sub-complex” (Scientific Reports, 2016)
Results are given in words; binding and its absence hold for the method and conditions named. For some of these results: In cells and extracts the contact can be indirect. Some entries that bind do so weakly or less than the wild type. Tags and fused reporters may be left off the sequences shown. Values belong to the binder of their own block, whether it stands above or below them.

Key:
[1] = target: T1, hCOG8sir-mCh-ActA (human) (UniProt Q96MW5); assay: mitochondria relocalization assay; COG8 constructs targeted to mitochondria by GFP-ActA or mCherry-ActA co-expressed with 3Myc-tagged COG1 in HeLa cells; fixed 24 h after transfection, stained for Myc, confocal microscopy
T1 sequence: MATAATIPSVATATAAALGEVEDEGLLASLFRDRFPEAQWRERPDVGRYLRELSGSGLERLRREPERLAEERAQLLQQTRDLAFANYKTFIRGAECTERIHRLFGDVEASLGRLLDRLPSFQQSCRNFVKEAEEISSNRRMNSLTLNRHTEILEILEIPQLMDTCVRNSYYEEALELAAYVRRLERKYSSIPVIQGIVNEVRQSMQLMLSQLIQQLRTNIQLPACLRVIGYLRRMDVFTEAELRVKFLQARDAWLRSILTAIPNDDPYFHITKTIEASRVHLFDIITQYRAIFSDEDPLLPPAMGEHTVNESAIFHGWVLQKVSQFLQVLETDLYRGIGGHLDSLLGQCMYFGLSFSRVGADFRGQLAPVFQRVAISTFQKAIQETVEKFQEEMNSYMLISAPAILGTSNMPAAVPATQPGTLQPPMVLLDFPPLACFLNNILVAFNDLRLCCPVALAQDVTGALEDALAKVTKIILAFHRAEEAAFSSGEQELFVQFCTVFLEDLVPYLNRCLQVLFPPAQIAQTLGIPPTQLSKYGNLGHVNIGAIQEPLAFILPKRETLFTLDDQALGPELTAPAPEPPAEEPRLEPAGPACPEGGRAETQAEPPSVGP

GFP-hGS15 (human) = target: T2, GFP-hGS15 (human) (UniProt Q9NYM9); assay: co-IP; GFP IP on GBP (GFP binding protein) beads from lysates of transfected HEK293T cells (50 mM Tris pH 7.4, 150 mM NaCl, 1% Triton X-100), 2 h at room temperature; blotted for COG8, Myc and GFP
T2 sequence: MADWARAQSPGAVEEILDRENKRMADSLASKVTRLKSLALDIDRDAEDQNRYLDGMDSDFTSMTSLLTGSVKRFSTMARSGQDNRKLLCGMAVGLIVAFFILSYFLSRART

[2] = target: T3, COG8sir 1–136 GFP-ActA (human) (UniProt Q96MW5); assay: mitochondria relocalization assay; COG8 constructs targeted to mitochondria by GFP-ActA or mCherry-ActA co-expressed with 3Myc-tagged COG1 in HeLa cells; fixed 24 h after transfection, stained for Myc, confocal microscopy
T3 sequence: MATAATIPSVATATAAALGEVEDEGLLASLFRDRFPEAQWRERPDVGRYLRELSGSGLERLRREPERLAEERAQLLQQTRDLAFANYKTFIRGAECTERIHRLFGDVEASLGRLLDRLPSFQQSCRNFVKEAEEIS

[3] = target: T4, hCOG8sir 1–406 GFP-ActA (human) (UniProt Q96MW5); assay: as above
T4 sequence: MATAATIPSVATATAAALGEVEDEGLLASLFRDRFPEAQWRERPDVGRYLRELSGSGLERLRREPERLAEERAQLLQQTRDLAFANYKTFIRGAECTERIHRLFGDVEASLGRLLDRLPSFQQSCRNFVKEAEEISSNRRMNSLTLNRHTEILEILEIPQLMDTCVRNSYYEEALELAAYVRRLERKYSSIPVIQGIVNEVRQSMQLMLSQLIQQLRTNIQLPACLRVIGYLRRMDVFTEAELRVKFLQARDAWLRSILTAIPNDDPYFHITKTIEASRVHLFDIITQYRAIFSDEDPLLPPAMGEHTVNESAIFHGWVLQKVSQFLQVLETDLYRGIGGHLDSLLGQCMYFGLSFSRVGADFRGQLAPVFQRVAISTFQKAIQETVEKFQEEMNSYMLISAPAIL

[4] = target: T5, hCOG8sir Δ8–406 GFP-ActA (human) (UniProt Q96MW5); assay: as above
T5 sequence: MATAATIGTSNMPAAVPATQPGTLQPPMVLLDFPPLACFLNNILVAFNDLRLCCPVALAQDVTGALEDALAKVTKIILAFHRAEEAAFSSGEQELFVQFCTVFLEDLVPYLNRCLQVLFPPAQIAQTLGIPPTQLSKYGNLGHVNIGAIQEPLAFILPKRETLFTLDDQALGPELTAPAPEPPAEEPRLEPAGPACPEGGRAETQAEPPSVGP

[5] = target: T6, hCOG8sir-GFP-ActA (human) (UniProt Q96MW5); assay: as above
T6 sequence: T1 sequence

- binding [1]: no binding
B1: hCOG1 1-702-3Myc (domain or fragment, UniProt Q8WTW3 1-702)
chain: MATAATSPALKRLDLRDPAALFETHGAEEIRGLERQVRAEIEHKKEELRQMVGERYRDLIEAADTIGQMRRCAVGLVDAVKATDQYCARLRQAGSAAPRPPRAQQPQQPSQEKFYSMAAQIKLLLEIPEKIWSSMEASQCLHATQLYLLCCHLHSLLQLDSSSSRYSPVLSRFPILIRQVAAASHFRSTILHESKMLLKCQGVSDQAVAEALCSIMLLEESSPRQALTDFLLARKATIQKLLNQPHHGAGIKAQICSLVELLATTLKQAHALFYTLPEGLLPDPALPCGLLFSTLETITGQHPAGKGTGVLQEEMKLCSWFKHLPASIVEFQPTLRTLAHPISQEYLKDTLQKWIHMCNEDIKNGITNLLMYVKSMKGLAGIRDAMWELLTNESTNHSWDVLCRRLLEKPLLFWEDMMQQLFLDRLQTLTKEGFDSISSSSKELLVSALQELESSTSNSPSNKHIHFEYNMSLFLWSESPNDLPSDAAWVSVANRGQFASSGLSMKAQAISPCVQNFCSALDSKLKVKLDDLLAYLPSDDSSLPKDVSPTQAKSSAFDRYADAGTVQEMLRTQSVACIKHIVDCIRAELQSIEEGVQGQQDALNSAKLHSVLFMARLCQSLGELCPHLKQCILGKSESSEKPAREFRALRKQGKVKTQEIIPTQAKWQEVKEVLLQQSVMGYQVWSSAVVKVLIHGFTQSLL

- binding (GFP-hGS15 (human)): binds
B2: COG8 (endogenous, HEK293T) (protein, UniProt Q96MW5 1-612)
chain: T1 sequence

- binding [2]: binds
- binding [3]: binds
- binding [4]: no binding
- binding [5]: binds
- binding [1]: binds
B3: hCOG1-3Myc (protein, UniProt Q8WTW3 1-980)
chain: MATAATSPALKRLDLRDPAALFETHGAEEIRGLERQVRAEIEHKKEELRQMVGERYRDLIEAADTIGQMRRCAVGLVDAVKATDQYCARLRQAGSAAPRPPRAQQPQQPSQEKFYSMAAQIKLLLEIPEKIWSSMEASQCLHATQLYLLCCHLHSLLQLDSSSSRYSPVLSRFPILIRQVAAASHFRSTILHESKMLLKCQGVSDQAVAEALCSIMLLEESSPRQALTDFLLARKATIQKLLNQPHHGAGIKAQICSLVELLATTLKQAHALFYTLPEGLLPDPALPCGLLFSTLETITGQHPAGKGTGVLQEEMKLCSWFKHLPASIVEFQPTLRTLAHPISQEYLKDTLQKWIHMCNEDIKNGITNLLMYVKSMKGLAGIRDAMWELLTNESTNHSWDVLCRRLLEKPLLFWEDMMQQLFLDRLQTLTKEGFDSISSSSKELLVSALQELESSTSNSPSNKHIHFEYNMSLFLWSESPNDLPSDAAWVSVANRGQFASSGLSMKAQAISPCVQNFCSALDSKLKVKLDDLLAYLPSDDSSLPKDVSPTQAKSSAFDRYADAGTVQEMLRTQSVACIKHIVDCIRAELQSIEEGVQGQQDALNSAKLHSVLFMARLCQSLGELCPHLKQCILGKSESSEKPAREFRALRKQGKVKTQEIIPTQAKWQEVKEVLLQQSVMGYQVWSSAVVKVLIHGFTQSLLLDDAGSVLATATSWDELEIQEEAESGSSVTSKIRLPAQPSWYVQSFLFSLCQEINRVGGHALPKVTLQEMLKSCMVQVVAAYEKLSEEKQIKKEGAFPVTQNRALQLLYDLRYLNIVLTAKGDEVKSGRSKPDSRIEKVTDHLEALIDPFDLDVFTPHLNSNLHRLVQRTSVLFGLVTGTENQLAPRSSTFNSQEPHNILPLASSQIRFGLLPLSMTSTRKAKSTRNIETKAQVVPPARSTAGDPTVPGSLFRQLVSEEDNTSAPSLFKLGWLSSMTK
